Values of other authors, collected in patent publication US20140221490A1, “METHODS OF TREATING PAIN” (Hospira, Inc., priority 2011, published 2014).

Conditions: cited from earlier work; for K1:1, stability constant of 1:1 inclusion complex with HPβCD: literature reference; for Prot. bind., drug fraction bound to protein (fP): plasma; for Cmax: read-out: Cmax, maximum drug concentration in plasma, based on the drug's pharmacokinetics and administration of a normal drug dose

| SMILES | K1:1, stability constant of 1:1 inclusion complex with HPβCD | Prot. bind., drug fraction bound to protein (fP) [%] | Cmax [µM] |
| --- | --- | --- | --- |
| CC(C)(C(=O)O)c1ccc(C(O)CCCN2CCC(C(O)(c3ccccc3)c3ccccc3)CC2)cc1 (centres unmarked) [Allegra-D (fexofenadine), fexofenadine] | 410^3 M^−1 | 70 | 1.1 |
| Cc1cc(NS(=O)(=O)c2ccc(N)cc2)no1 [Bactrim (sulfamethoxazole), sulfamethoxazole] | – | 70 | 230 |
| CN(C)CCOC(c1ccccc1)c1ccccc1 [Diphenhydramine] | 1,600^19 M^−1 | 80 | 0.62 |
| NS(=O)(=O)c1cc(C(=O)O)c(NCc2ccco2)cc1Cl [Furosemide] | 2,100^27 M^−1 | 99 | 8.6 |
| Cc1cnc(C(=O)NCCc2ccc(S(=O)(=O)NC(=O)NC3CCCCC3)cc2)cn1 [Glipizide] | 360^29 M^−1 | 99 | 1.4 |
| CCN(CC)CC(=O)Nc1c(C)cccc1C [Lidocaine] | – | – | 5.6 |
| COc1ccc2cc([C@H](C)C(=O)O)ccc2c1 [Naproxen] | 2,000^36 M^−1 | – | 340 |
